Screen size: about 110,000 compounds; about 230 (0.21%) showed an effect of 50% or more. The list shows a part of the results.
Target: DPAP1 (Plasmodium falciparum, UniProt Q8IIJ9)
Experiment: primary screen, percent inhibition; read by cleavage of a fluorogenic dipeptide substrate; higher = more effect of the substance
Design: species or system P. falciparum D10 trophozoite lysates; single well
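Also: 30 min substrate incubation versus DMSO and 10 µM JCP410 controls.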

DPAP1, sequence (Q8IIJ9 whole entry, looked up): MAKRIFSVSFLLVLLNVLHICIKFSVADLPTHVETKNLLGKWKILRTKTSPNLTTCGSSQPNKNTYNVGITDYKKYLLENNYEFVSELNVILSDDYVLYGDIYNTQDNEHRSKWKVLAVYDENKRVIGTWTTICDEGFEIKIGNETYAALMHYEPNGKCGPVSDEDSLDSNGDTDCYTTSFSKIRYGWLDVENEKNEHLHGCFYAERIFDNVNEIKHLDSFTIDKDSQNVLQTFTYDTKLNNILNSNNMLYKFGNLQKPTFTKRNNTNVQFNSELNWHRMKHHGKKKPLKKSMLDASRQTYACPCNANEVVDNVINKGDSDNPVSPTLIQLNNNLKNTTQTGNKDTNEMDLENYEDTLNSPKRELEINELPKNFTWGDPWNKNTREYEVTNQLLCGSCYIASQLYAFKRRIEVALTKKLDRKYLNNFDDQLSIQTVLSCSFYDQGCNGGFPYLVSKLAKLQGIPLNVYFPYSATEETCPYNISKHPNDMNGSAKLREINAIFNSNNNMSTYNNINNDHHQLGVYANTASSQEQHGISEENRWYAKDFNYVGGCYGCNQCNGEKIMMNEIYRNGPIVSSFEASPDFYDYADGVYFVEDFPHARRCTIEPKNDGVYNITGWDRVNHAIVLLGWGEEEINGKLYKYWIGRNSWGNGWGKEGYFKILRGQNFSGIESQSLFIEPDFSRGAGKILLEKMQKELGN

Compound	% Inhibition @ 10 uM [%]
CCN(CC)S(=O)(=O)c1ccc(C(=O)Nc2c3c(nn2C(C)(C)C)CS(=O)(=O)C3)cc1	-0.195
CC(=O)Nc1ccc(S(=O)(=O)N2CCN(C(=O)N3CCCC3)CC2)cc1	-1.61
Cc1ccc(CN2c3ccsc3C(O)=C(/C=N/Cc3cccnc3)S2(=O)=O)cc1	-4.41
CCC(C(=O)Nc1ccc(OC)cc1)c1ccccc1 (stereo not drawn)	3.7
OC1CCN(Cc2ccccc2C(F)(F)F)CC1	-1.92
O=C(O)C1CSC(C(=O)O)CC(c2ccccc2)=N1 (stereo not drawn)	-1.8
CCc1cccc(C)c1NC(=O)Cc1ccc(OC)cc1	-10.3
CCN1CCC(N2CCC(C(N)=O)CC2)CC1	-7.35
COC(=O)c1sccc1NC(=O)C1CCCN(c2ncnc3c2nc2n3CCCCC2)C1 (stereo not drawn)	8.64
CCc1ccc(NC2=CC(=O)CC(c3ccc(OC)c(OC)c3)C2)cc1 (stereo not drawn)	-0.25
N#CC1=C(N)Oc2c(ccc3ccccc23)C1c1cccc(F)c1 (stereo not drawn)	-2.21
COc1ccc(CCn2c(C)nc(=O)c(-c3ccccc3)c2C)cc1OC	-2.6
CCN(CC)C(=O)C1CCCN(Cc2cccc(C)c2)C1 (stereo not drawn)	-1.92
c1ccc(CN2CCN(Cc3ccccc3)CC2)cc1	6.02
CCOC(=O)c1c(C)c(C(=O)NC2CC(C)CC(C)(C)C2)c(C)n1CC (stereo not drawn)	-1.88
CCn1c(CCCNC(=O)c2cc(OC)c(OC)c(OC)c2)nc2ccccc21	-2.01
CCC(Sc1nc2c(sc3ccccc32)c(=O)n1CCCOC)C(=O)NCc1ccco1 (stereo not drawn)	6.65
O=C(CCn1ccc2cc(S(=O)(=O)N3CCCCC3)ccc21)N1CCc2ccccc2C1	2.31
CCOC(=O)N1CCN(c2c(NCCN(C)C)c(=O)c2=O)CC1	4.35
CC1=C(C(=O)Nc2ccccc2)C(c2ccco2)C(C#N)=C(SCC(=O)Nc2ccc(C)cc2C)N1 (stereo not drawn)	1.57
Cn1cc(C(=O)NC2C3CC4CC(C3)CC2C4)cn1 (stereo not drawn)	3.24

Compound	% Inhibition @ 10 uM [%]
Cn1nnnc1SCCNCc1ccc(-c2ccccc2F)o1	-1.71
Cc1cccc(C)c1OCc1nnc(CCc2ccccc2)o1	-7.15
O=C(c1cccc(F)c1)N1CCN(C(=O)c2cc(-c3ccc(F)cc3)no2)CC1	2.46
COc1ccc(C2C(C#N)=C(N)N(c3ccc(F)cc3)C3=C2C(=O)CC(C)(C)C3)cc1O (stereo not drawn)	0.76
CC1(C(=O)Nc2nc3ccccc3s2)CC1(Br)Br (stereo not drawn)	5.7
CC12CN3CC(C)(CN(C1)C3c1cn(Cc3ccccc3)c3ccccc13)C2O (stereo not drawn)	-8.95
CCNC(=O)C(=O)NCc1ccccn1	3.82
Cc1cccc(-c2cc(C(=O)NCc3ccncc3)c3ccccc3n2)c1	-3.18
O=C(Cc1ccccc1Cl)N1CCC(c2nc(O)c3nnn(Cc4cccs4)c3n2)CC1	-2.92
CCCCc1[nH]nc2c1C1(CCN(C(=O)OC(C)(C)C)CC1)C(C#N)=C(N)O2	2.01
COc1ccc(C(=O)Nc2ccc(-c3nc4cc(Cl)ccc4o3)c(O)c2)cc1OC	1.92
COC(=O)c1ccc(C(c2c(C)n(C)n(-c3ccccc3)c2=O)c2c(C)n(C)n(-c3ccccc3)c2=O)cc1	5.29
Cc1nn(C(C)C(=O)NCCCN(C)Cc2ccccc2)c(=O)c2nn(-c3ccccc3)c(C)c12 (stereo not drawn)	-1.05
O=C(Nc1c(C(=O)N2CCCCC2)cnn1-c1ccccc1)c1ccccc1	-3.05
O=C(O)C1CSC(c2ccc(OCc3ccc(F)cc3)cc2)N1 (stereo not drawn)	1.64
CC1(C)CNC(=O)c2sc(NC(=O)c3ccccc3Cl)nc2C1	1.62
O=C(c1ccc(Cn2cc(Cl)cn2)o1)N1N=C(C(F)F)CC1(O)C(F)F (stereo not drawn)	-0.105
Cc1cccn2c(=O)c(/C=C(\C#N)C(=O)NCCc3ccccc3)c(Oc3ccccc3)nc12	-5.1
O=C(CN1CCN(c2ccccc2)CC1)Nc1ccc(Br)cc1	-6.47
Cn1nc(-c2ccccc2F)c2cc(C(=O)NC3CCN(Cc4ccccc4)CC3)sc21	-3.23
CCN(Cc1ccccc1)C(=O)Cn1cnc2c1c(=O)n(C)c(=O)n2C	-5.15

Compound	% Inhibition @ 10 uM [%]
O=C(NCc1ccc(Cl)cc1)c1cc2c(s1)CSC2	0.44
COc1ccc2ccccc2c1CN1CC2(C)CC1CC(C)(C)C2 (stereo not drawn)	3.48
Cc1ccc(CN2C(=O)c3oc4ccccc4c(=O)c3C2c2ccc(O)cc2)cc1 (stereo not drawn)	-1.33
CC(=O)N(CCN(C(C)=O)c1ccccc1)c1ccccc1	-7.1
O=C(CSc1nc2nncc-2c(O)n1-c1ccc(Cl)cc1)NCc1cccs1	3.04
COc1ccc(C2NC(C(=O)O)CS2)cc1CN1CCOCC1 (stereo not drawn)	0.408
Cn1c(=O)[nH]c(=O)c2c1nc(N=Nc1c(O)[nH]c3ccccc13)n2CC(O)COc1ccccc1 (stereo not drawn)	4.95
SC1N=C(c2ccccc2)C=C(c2ccccc2)N1 (stereo not drawn)	-3.69
COC(=O)c1oc2ccccc2c1O	46
CN(C)c1ccc(C(O)(c2ccc(N(C)C)cc2)C2CN3CCC2CC3)cc1 (stereo not drawn)	1.7
O=C(CCCc1nc(-c2ccccc2Cl)no1)NCc1ccco1	-4.75
COC(=O)c1cc(=O)c2ccc(OC)cc2o1	2.22
COc1cccc2cc(-c3nc(-c4cccnc4)no3)c(=O)oc12	2.46
COc1ccc(Cl)cc1-c1noc(COc2ccccc2)n1	2.62
O=C(O)COc1ccccc1/C=C1\SC(=O)N(Cc2ccc(F)cc2)C1=O	-3.09
COC(=O)c1ccc(C2SCC(=O)N2c2nc3ccccc3s2)cc1 (stereo not drawn)	1.91
Cc1c(C)n(C)c2ccc(C(=O)Nc3cccc(Cl)c3)cc12	-1.28
COc1cc2c(cc1OC)C(c1ccccc1OC(C)C)CC(=O)N2 (stereo not drawn)	2.45
O=C(OCc1ccccn1)c1ccc(COc2cccc3ccccc23)cc1	0.413
CC(C)(C)c1ccc(S(=O)(=O)NCC(=O)Nc2sc3c(c2C#N)CCC3)cc1	-2.77
CCn1c(C)c(CCC(=O)NCCCN2CCCC2=O)c(=O)n2nc(-c3ccccc3OC)cc12	-8.02

Reference: paper PMC6919601, “Identification of Plasmodium dipeptidyl aminopeptidase allosteric inhibitors by high throughput screening” (PLoS ONE, 2019)
